# Reference: article PMC12040169 (PLOS Biology, 2025)
# This is one part of the list.
# System: T1, C. trachomatis L2/434/Bu expressing GFP (CTL2-GFP)
# T1 construct: L2/434/Bu GFP intracellular growth in HeLa cells
# Parameters: species or system HeLa; C. trachomatis total inclusion area by high-content imaging, normalised to DMSO
# Settings: total inclusion area; 28.5 h, 10 µM; inhibitor
# Outline: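 High-content images of fixed, Hoechst-stained infected cultures supply inclusion area and count (growth) plus nuclei number (viability), complementing bulk GFP/resorufin fluorescence. MIC determination is unchanged from the primary assay.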
row,Structure (SMILES),% of control remaining
1,S=c1n(CN2CCC(c3ccccc3)CC2)nc(Cc2ccccc2)n1-c1ccccc1 [CBK265037],103.661
2,CN1CCN(C(=O)c2cccc(-c3ncc(OCC(F)(F)F)nc3N)c2)CC1 [CBK145196],60.0228
3,CN1CCN(c2nccnc2-c2cccc(F)c2)CC1 [CBK036876],93.1318
4,CCn1c(C)nc2cc(NC(=O)Cn3cccn3)ccc21 [CBK281828],101.405
5,COc1nccnc1OC1CCN(CC2CCCCC2)CC1 [CBK084263],84.761
6,O=C(Cc1ccc(Cl)cc1Cl)Nc1ccc2ncccc2c1 [CBK159787],92.132
7,CC1Cc2cc(C(O)CN3CCCCC3)ccc2N1C(=O)C1CC1 (stereo not shown) [CBK283144],109.836
8,CC(=O)N1CCC[C@@H](N)[C@@H]1c1ccccc1F [CBK281562],86.0872
9,Cc1ccccc1OCC(=O)Nc1ccc(CSc2ccccc2)cc1 [CBK264651],84.1141
10,Cc1ccc(Cl)cc1-n1cc(-c2ccc(F)cc2F)nn1 [CBK112995],84.3932
11,CCN1C(=O)c2ccccc2C(=O)[C@@]2(C)CN(C)C[C@@H]12 [CBK283478],93.5441
12,CCOC(=O)c1cccc(NS(=O)(=O)c2c(C)noc2C)c1 [CBK034339],112.347
13,Cc1ccc(C)c(NC(=S)NCCc2ccc(S(N)(=O)=O)cc2)c1 [CBK264879],98.594
14,COC(=O)c1ccc(OCc2nnn[nH]2)cc1 [CBK269544],99.5827
15,Nc1ncc(-c2cncnc2)nc1NC1CC1 [CBK063869],111.043
16,CCc1ccc(CCC(=O)N2CCN(S(=O)(=O)c3sc(C(=O)O)c(C)c3C(=O)O)CC2)cc1 [CBK297138],105.414
17,CN(C)CCCNC(=O)Nc1cccc(-c2nc(-c3ccc(C#N)cc3)cnc2N)c1 [CBK116287],25.7928
18,O=c1[nH]c(=O)c2cc(S(=O)(=O)NCC3(c4ccccc4)CCCC3)ccc2[nH]1 [CBK286387],127.418
19,Cn1nc(NC(=O)CC(C)(C)CC(=O)O)c2c(F)cccc21 [CBK057122],39.5079
20,COc1c(O)ccc(/C=N/NC(=O)COc2c(Br)cc(Br)cc2Br)c1[N+](=O)[O-] [CBK261957],92.4987
21,COCCNc1nc(-c2ccc(C(C)=O)s2)ccc1C(=O)N(C)CCN(C)C [CBK105914],77.1815
22,COc1ccccc1CC(=O)N[C@@H]1CCN(Cc2cccnc2)C[C@H]1O [CBK307200],69.1677
23,CC(C)c1nnc(NS(=O)(=O)Cc2ccccc2)s1 [CBK045540],83.033
24,COc1ccc(Cl)cc1N1CCN(CC2CCCCC2)CC1 [CBK138336],102.378
25,CCN1CCCC1CNC(=O)c1ccc(-c2ccc(OC)cc2)nc1N(C)C(C)=O (stereo not shown) [CBK076491],91.426
26,Cc1cc(Sc2ncnc(N)c2[N+](=O)[O-])ncn1 [CBK267235],6.441

row,Structure (SMILES),% of control remaining
1,CC(=O)Nc1ccc(-c2cncc(N3CCN(CCN4CCCC4)CC3)n2)cc1 [CBK065710],128.588
2,CC(=O)NCc1ccc(-c2cc(CN(C)C)n(C)n2)cc1 [CBK281667],87.4033
3,O=C(Cc1ccccc1Cl)N1CCC(O)(c2cccnc2F)CC1 [CBK284360],71.3587
4,Cc1nn(C)c(Cl)c1S(=O)(=O)NC1(c2ccc(F)cc2)CC1 [CBK282800],106.566
5,Cc1cc(C)c(C)c(CSCc2nc3ccccc3[nH]2)c1C [CBK266466],101.006
6,CC(C)(CSc1ccccn1)NS(=O)(=O)c1ccccc1 [CBK268513],92.3358
7,O=C1CCCN1c1ccc(S(=O)(=O)N(c2ccccc2)C2CCNCC2)cc1 [CBK165122T],56.4916
8,O=C(O)C1C2CCC(CC2)C1C(=O)N1CCN(Cc2ccccc2Cl)CC1 (stereo not shown) [CBK270336],102.301
9,CCNC(=O)C1CCN(Cc2nc(-c3cc(OC)ccc3F)oc2C)C1 (stereo not shown) [CBK307040],42.0164
10,c1ccc(SCc2csc(-c3ccc4c(c3)OCO4)n2)nc1 [CBK270294],101.97
11,CCCc1cc(O)nc(SCC(=O)Nc2ccc(Cl)cc2Cl)n1 [CBK265147],89.9451
12,COCCNc1nc2c([nH]1)c(=O)n(C)c(=O)n2C [CBK288104],98.444
13,CCn1c(=O)n(CC(=O)N2CCC(C)CC2)c2cccnc21 [CBK283895],97.4749
14,O=P(O)(CNCc1ccccc1)CNCc1ccccc1 [CBK261604C],90.1762
15,Cc1nccn1CCNC(=O)Cn1cnc2ccccc21 [CBK281983],120.854
16,CCOc1ccc(/N=N\c2ccc(O)c(/C=N\Nc3ccc([N+](=O)[O-])cc3)c2)cc1 [CBK262111],106.594
17,CCN1CC2(CCN(Cc3ccc4nsnc4c3)CC2)c2ccccc21 [CBK136994],111.575
18,COc1ncc(-c2cncc(N3CCN(CCO)CC3)n2)c(OC)n1 [CBK065146],124.818
19,CCCCSc1nc(N)cc(N2CCCC(N3CCCC3=O)C2)n1 (stereo not shown) [CBK306995],87.8466
20,O=C(C[S+]([O-])c1ccc(C(F)(F)F)cc1[N+](=O)[O-])Oc1cccc2cccnc12 (stereo not shown) [CBK266716],76.225
21,COc1cc(CNc2nccnc2-c2cccnc2)cc(OC)c1 [CBK038061],81.4938
22,c1ccc2c(CCN3CCC[C@@H]3CN3CCCC3)c[nH]c2c1 [CBK149104],90.4804
23,N/C(CC(=O)Nc1cc(Cl)cc(Cl)c1)=N\O [CBK228614],59.8291
24,Cc1ccccc1Nc1nc(N)nc(CN2CCCC(C(F)(F)F)C2)n1 (stereo not shown) [CBK305073],32.9174
25,CCCCOc1ccc(-c2nnn(C(C)C(=O)OCC)n2)cc1 (stereo not shown) [CBK068558],93.8201
26,O=C(Nc1sc2c(c1C(=O)NCc1cccnc1)CCCC2)c1sc2ccccc2c1Cl [CBK266334],112.476
